Each structure is given as a SMILES string. Some of the results follow.

The values that follow come from the antibiotic and cytotoxicity screens of Wong et al. (2023).

In the experiment the test system is HepG2. Briefly: cytotoxicity call (relative viability < 0.9). The settings on record: 10 µM.
Consider `Cc1noc(C)c1NC(=O)Nc1ccc2c(c1)CC(=O)N([C@H](C)CO)C[C@H](C)[C@@H](CN(C)CC1CC1)O2`, for which the cytotoxicity call was “inactive”. The entry for `C[C@H]1CN([C@@H](C)CO)C(=O)c2cccc(NC(=O)c3ccncc3)c2O[C@H]1CN(C)S(=O)(=O)c1cn(C)cn1` is “inactive”; for `Cc1c(Cl)cccc1Nc1ccccc1C(=O)O` it is “inactive”; for `Nc1nc(CO)cs1` it is “inactive”. With `C[C@H]1CCCCO[C@H](CN(C)C(=O)Nc2cccc3ccccc23)[C@@H](C)CN([C@@H](C)CO)C(=O)c2cc(NC(=O)Nc3cccc4ccccc34)ccc2O1`, the cytotoxicity call was “inactive”. Consider `C[C@H](CO)N1C[C@H](C)[C@@H](CN(C)Cc2ccc(-c3ccccc3)cc2)Oc2c(NC(=O)Nc3ccccc3)cccc2C1=O`, for which the cytotoxicity call is “inactive”. For `C[C@@H]1CCCCO[C@H](CN(C)C(=O)Nc2ccccc2)[C@H](C)CN([C@H](C)CO)C(=O)c2cc(NC(=O)NC3CCCCC3)ccc2O1`, the cytotoxicity call was “inactive”. As for `CNC1C(OC2C(OC3C(O)C(O)C(NC(=N)N)C(O)C3NC(=N)N)OC(C)C2(O)CO)OC(CO)C(O)C1O.O=S(=O)(O)O` (stereo unspecified), the cytotoxicity call is “inactive”. The entry for `CN(C)CCCNC(=O)C[C@H]1CC[C@H](NS(=O)(=O)c2ccccc2)[C@@H](CO)O1` is “inactive”; for `C[C@@H]1CCCCO[C@H](CN(C)C(=O)Cc2ccccc2)[C@H](C)CN([C@@H](C)CO)C(=O)c2cc(NC(=O)Nc3ccccc3)ccc2O1` it is “inactive”; for `Cc1noc(C)c1NC(=O)N(C)C[C@@H]1Oc2ccc(NS(=O)(=O)c3ccccc3)cc2C(=O)N([C@H](C)CO)C[C@@H]1C` it is “inactive”. As for `COc1ccc(CNC(=O)N(C)C[C@H]2OCc3ccccc3-c3c(n(C)c4ccccc34)C(=O)N([C@@H](C)CO)C[C@H]2C)cc1`, the cytotoxicity call was “inactive”. In the case of `C[C@@H]1CN([C@H](C)CO)C(=O)c2cc(NC(=O)Nc3cccc4ccccc34)ccc2O[C@H]1CN(C)Cc1ccc(Cl)c(Cl)c1`, the cytotoxicity call is “inactive”. Take `O=C(C[C@H]1C[C@@H]2c3cc(NC(=O)c4ccc5c(c4)OCO5)ccc3O[C@@H]2[C@@H](CO)O1)NCC(F)(F)F`: the cytotoxicity call was “inactive”. Then `C[C@H]1CN([C@@H](C)CO)C(=O)Cc2cc(NC(=O)Nc3ccc(C(F)(F)F)cc3)ccc2O[C@H]1CN(C)Cc1ccc(-c2ccccc2)cc1`, with “active”; and `C[C@@H]1CCCCO[C@H](CN(C)C(=O)C2CCCCC2)[C@@H](C)CN([C@H](C)CO)C(=O)c2cc(NS(=O)(=O)c3ccc(Cl)cc3)ccc2O1`, with “inactive”. The entry for `Cc1noc(C)c1NC(=O)Nc1ccc2c(c1)C(=O)N([C@H](C)CO)C[C@@H](C)[C@@H](CN(C)S(=O)(=O)c1ccc(F)cc1)OCCCC[C@@H](C)O2` is “inactive”; for `NCc1ccc(-n2cccn2)cc1` it is “inactive”. In the case of `O=C(NCC[C@@H]1CC[C@@H](NS(=O)(=O)c2cccc(F)c2)[C@@H](CO)O1)C1CC1`, the cytotoxicity call was “inactive”. The entry for `COc1ccc(S(=O)(=O)Nc2ccc3c(c2)[C@H]2C[C@@H](CC(=O)NCC4CC4)O[C@H](CO)[C@H]2O3)cc1` is “inactive”; for `CN1CCN(C(=O)c2ccc(N)cc2)CC1` it is “inactive”; for `O=C(CN1CCOCC1)NCC[C@@H]1CC[C@H](NC(=O)c2ccccc2F)[C@H](CO)O1` it is “inactive”. As for `CC1(C)C=Cc2cc(C#N)ccc2O1`, the cytotoxicity call is “inactive”. As to `C[C@@H]1CCCCO[C@@H](CN(C)C(=O)Cc2ccccc2)[C@H](C)CN([C@@H](C)CO)C(=O)c2cc(NC(=O)Nc3ccc(C(F)(F)F)cc3)ccc2O1`, the cytotoxicity call was “inactive”. For `COCC(=O)N1CC[C@]2(CC1)CN([C@H](CO)c1c2c2ccc(cc2n1C)OC)C(=O)Cc1ccccc1`, the cytotoxicity call is “active”. Then `COc1cccc(C#Cc2ccc3c(c2)O[C@@H](CN(C)C(=O)c2ccccn2)[C@H](C)CN([C@H](C)CO)S3(=O)=O)c1`, with “inactive”.

As to `Cc1ccc(S(=O)(=O)N(C)C[C@@H]2OCCCC[C@H](C)Oc3ccc(NC(=O)Nc4ccc5c(c4)OCO5)cc3C(=O)N([C@H](C)CO)C[C@H]2C)cc1`, the cytotoxicity call is “inactive”. Then `COc1ccc(S(=O)(=O)N(C)C[C@H]2Oc3ccc(N(C)C)cc3CC(=O)N([C@H](C)CO)C[C@@H]2C)cc1`, with “inactive”. The entry for `COCC(=O)N1CC[C@]2(CC1)CN([C@@H](CO)c1[nH]c3cc(ccc3c12)OC)C(=O)Nc1ccccc1F` is “inactive”; for `CNS(=O)(=O)c1ccc2[nH]c(=O)[nH]c2c1` it is “inactive”; for `COc1ccc(NC(=O)N(C)C[C@@H]2OCCCC[C@@H](C)Oc3ccc(NS(=O)(=O)c4ccc(OC)cc4)cc3C(=O)N([C@@H](C)CO)C[C@H]2C)cc1` it is “inactive”.
